# Screen size: about 310,000 compounds; about 14,000 (4.5%) showed an effect of 50% or more. The effect is printed as a negative number. The list shows a part of the results.
# Target: human ether-à-go-go-related gene (hERG) potassium channel (human, UniProt Q12809)
# Assay: primary screen, population patch clamp on CHO cells stably expressing hERG
# 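Also: peak tail current of the secondary pulse compared with the same well before compound.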
# Sequence of human ether-à-go-go-related gene (hERG) potassium channel (Q12809 whole entry, looked up): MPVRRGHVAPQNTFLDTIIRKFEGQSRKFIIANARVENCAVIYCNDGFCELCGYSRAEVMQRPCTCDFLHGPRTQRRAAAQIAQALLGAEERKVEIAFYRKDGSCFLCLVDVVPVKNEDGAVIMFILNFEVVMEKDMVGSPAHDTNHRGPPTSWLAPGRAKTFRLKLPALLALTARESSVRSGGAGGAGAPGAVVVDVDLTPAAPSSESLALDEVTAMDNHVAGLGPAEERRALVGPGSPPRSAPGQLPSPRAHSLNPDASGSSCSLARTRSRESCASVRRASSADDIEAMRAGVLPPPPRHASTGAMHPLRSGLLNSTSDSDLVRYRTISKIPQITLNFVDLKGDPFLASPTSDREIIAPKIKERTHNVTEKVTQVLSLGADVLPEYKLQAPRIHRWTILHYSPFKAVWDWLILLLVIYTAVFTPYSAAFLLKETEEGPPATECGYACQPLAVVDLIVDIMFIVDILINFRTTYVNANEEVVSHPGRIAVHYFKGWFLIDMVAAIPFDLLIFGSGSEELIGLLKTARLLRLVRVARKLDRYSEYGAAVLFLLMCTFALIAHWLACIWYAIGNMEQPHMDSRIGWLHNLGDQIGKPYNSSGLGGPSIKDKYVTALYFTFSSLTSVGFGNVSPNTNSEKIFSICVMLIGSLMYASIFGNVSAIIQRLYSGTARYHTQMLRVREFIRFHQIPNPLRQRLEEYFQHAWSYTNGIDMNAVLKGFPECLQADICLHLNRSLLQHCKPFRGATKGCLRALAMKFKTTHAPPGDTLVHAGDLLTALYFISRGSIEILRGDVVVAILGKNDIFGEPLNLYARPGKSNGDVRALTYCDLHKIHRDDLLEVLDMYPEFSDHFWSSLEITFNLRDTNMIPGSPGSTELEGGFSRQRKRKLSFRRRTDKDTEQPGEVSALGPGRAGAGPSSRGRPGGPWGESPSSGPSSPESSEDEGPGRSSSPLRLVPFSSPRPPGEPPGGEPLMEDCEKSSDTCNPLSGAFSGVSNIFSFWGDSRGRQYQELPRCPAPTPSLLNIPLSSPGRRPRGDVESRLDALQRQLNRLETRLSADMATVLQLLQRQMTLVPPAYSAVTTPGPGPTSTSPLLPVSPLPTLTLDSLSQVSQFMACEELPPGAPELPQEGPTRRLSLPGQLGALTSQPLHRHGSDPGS
row,SMILES,"hERG current change (%, negative = inhibition) at 10uM [%]"
1,COC(=O)C1(O)CC(C(C)C)=NN1C(=O)c1ccccc1 (centres unmarked),26.8
2,CCOC(=O)c1[nH]c2cc(OC)c(OC)cc2c1NC(=O)c1ccc2c(c1)OCO2,-4.45
3,COC(=O)c1c(C)nn(-c2ccccc2)c1N,10.7
4,Cc1nnc(NC(=O)c2sc3ccccc3c2Cl)s1,-2.23
5,CC(C)(C)OC(=O)N1CCC[C@H]1C(=O)O,6.78
6,Cc1ccc(Sc2ncccc2C(=O)O)cc1C,22.2
7,CCOc1ccc(S(=O)(=O)N2CCN(C(=O)CN3C(=O)NC4(CCCC4)C3=O)CC2)cc1,-14.1
8,CCN1CCCC1CNC(=O)c1cc2c(C)nc3ccccc3c2o1 (centres unmarked),-12
9,Cc1ccc(S(=O)(=O)N2CCC(C(=O)Nc3nnc(-c4ccc(F)cc4)s3)CC2)cc1,-0.696
10,Cc1ccc(CNC(=O)c2ccc3c(=O)c(O)c(-c4ccc(C)cc4)[nH]c3c2)cc1,17.4
11,COc1ccc(-c2nc3ccccc3c(=O)n2CCOc2cc(C)ccc2C)cc1,26.6
12,O=C(CSc1ccccc1)Nc1cccc(NC(=O)c2ccco2)c1,-17.8
13,O=C(O)C(Cc1cnc[nH]1)NS(=O)(=O)c1ccc(Br)cc1 (centres unmarked),2.95
14,C=CC[n+]1c(C)csc1Nc1cccc(Br)c1.[Br-],-6.64
15,Cn1cccc1C(=O)OCC(=O)NC(=O)NC1CCCCC1,11.8
16,CCOC(=O)c1sc2c(c1C)C(c1cccs1)C1=C(CCCC1=O)N2 (centres unmarked),8.89
17,O=C(NCc1csc(-c2cccs2)n1)C1CC1,14.5
18,CCc1cc2c(=O)n(CCCOC)c(SCC(=O)Nc3oc(C)c4c(C)n[nH]c(=O)c34)nc2s1,-1.43
19,FC(F)(F)c1ccc(-c2csc(-c3ccno3)n2)cc1,1.72
20,C/C(Cn1nnc([N+](=O)[O-])n1)=N\NC(=O)c1ccc(O)cc1,17.8
21,CC(C)(C)n1nnnc1C(c1ccc(C(F)(F)F)cc1)N(Cc1ccccc1)Cc1ccco1 (centres unmarked),2.52
22,Clc1ccc(-c2csc(=Nc3cccnc3)n2CCCn2ccnc2)cc1Cl,-67.3
23,Cc1cc(=O)[nH]c(S)c1C#N,8.46

row,SMILES,"hERG current change (%, negative = inhibition) at 10uM [%]"
1,COCCn1c(SCC(=O)Nc2ccccc2OC)nnc1-c1ccco1,-13.6
2,C=CCNC(=O)/C(C#N)=C\c1cc(Cl)c(O)c(OCC)c1,-0.608
3,CC(C)(C)c1ccc(S(=O)(=O)N2CCC(O)(c3ccc(Cl)cc3)CC2)cc1,8.47
4,CN(CCOc1ccccc1)C(=O)c1ccc2c(c1)OCO2,-13.8
5,Cc1onc(-c2ccccc2)c1C(=O)NC(=S)Nc1sc2c(c1C#N)CCC(C)C2 (centres unmarked),13.1
6,CCOC(=O)c1c(NC(=O)c2ccc(N3C(=O)C4C5C=CC(C5)C4C3=O)cc2)sc2c1CCCC2 (centres unmarked),15.2
7,CCOc1ccc(NC(=S)N2CCC(C(O)(c3ccccc3)c3ccccc3)CC2)cc1,-13
8,O=C(O)c1ccc(O)c(O)c1,14.7
9,N#CC1=C(N)N(c2ccc(Cl)c(Cl)c2)C(=O)C1,12.8
10,COc1ccc(CCCc2nnc(SCC(=O)Nc3cccc(C)c3)o2)cc1,-4.58
11,CCOc1ccc2c(c1)c1nc3ccccc3nc1n2C,13.8
12,CCCCN(CC)Cc1c(C)[nH]c2ccccc2c1=O,-20.7
13,O=C(C1=NN[C@@H]2C(=O)N(c3cccc(C(F)(F)F)c3)C(=O)[C@H]12)c1ccc2ccccc2n1,-17.6
14,NNC(=O)COc1ncn(-c2ccccc2)n1,18
15,CCCCCCn1c(=O)c(C(=O)Nc2nnc(C)s2)c(O)c2ccccc21,-1.74
16,CCN(CC(=O)NCc1cccs1)c1nnnn1-c1ccccc1,-3.68
17,O=c1c2c3c(sc2nc2sc(C4CC4)nn12)CCCC3,-3.58
18,CC(C)Cn1c(SCC(=O)NC(=O)NC2CCCC2)nc2ccccc21,-8.51
19,O=C(NCc1ccc2c(c1)OCO2)c1cc(-c2ccccn2)nc2ccccc12,4.41
20,CCN(CC)CCn1c(=S)[nH]c2cc(C(=O)NCc3ccc(C)cc3)ccc2c1=O,-57.9
21,CSc1ccc(S(=O)(=O)N2CCC(C(=O)Nc3ccccc3C(F)(F)F)CC2)cc1,7.69
22,Cc1cccc(NC(=O)/C(C#N)=C\c2cc(C)n(-c3ccc(C(=O)O)cc3)c2C)c1,17.1
23,Cc1cc(C)cc(NC(=O)Nc2ccc(NC(=O)c3ccccc3O)cc2)c1,5.33

row,SMILES,"hERG current change (%, negative = inhibition) at 10uM [%]"
1,C=CCOC(=O)C1=C(C)NC(SCC(=O)N(CC)CC)=C(C#N)C1c1ccccc1 (centres unmarked),-21.9
2,CC(C)(C)NC(=O)CSc1nnc(C2CC2)n1Cc1ccccc1,8.86
3,O=c1oc2ccccc2c2c1ncn2-c1ccccc1,-11.8
4,CCOc1ccccc1NC(=S)NC1CC2CCC1C2 (centres unmarked),11.7
5,O=C(COC(=O)c1nc(Cl)ccc1Cl)c1ccc[nH]1,10.3
6,CC1CCN(c2cc(N3CCOCC3)c(F)cc2[N+](=O)[O-])CC1,-2.53
7,Cc1ccc(C)c(-n2cc(-c3ccc(Cl)cc3)nc2SCC(=O)NC2CCS(=O)(=O)C2)c1 (centres unmarked),-12.2
8,O=S(=O)(Nc1ccc(Cl)cc1)c1ccc2c(c1)CCO2,-3.21
9,O=C(O)Cc1ccc2c(c1)N(S(=O)(=O)c1cccc(C(F)(F)F)c1)CC(C(=O)O)O2 (centres unmarked),13.2
10,Br.Cn1c(=N)n(CC(=O)c2ccc(Br)s2)c2ccccc21,-6.86
11,O=C(CSc1ncnc2c1oc1ccccc12)N1CCCc2ccccc21,-4.36
12,C=CCNC(=O)c1cc(Cl)ccc1Cl,5.76
13,N#C/C(C(=O)N1CCCC1)=C1/N=C(N)c2ccccc21,17.2
14,COc1cccc(NC(=O)CN(C)C(=O)c2ccc(OCc3ccccc3)c(OC)c2)c1,-19.7
15,Nc1nc2nc(-c3ccccc3)cc(C(F)(F)F)c2s1,0.183
16,Cc1ccc2c(c1)/C(=N/O)CCS2,-4.75
17,COC(=O)NNC(=O)C(C)Oc1ccc(Cl)cc1Cl (centres unmarked),-30.7
18,CCCC(C)C(=O)Nc1ccc(Cl)cc1Cl (centres unmarked),-12.8
19,CCCCCCn1c(SCCN2CCOCC2)nc2c1c(=O)[nH]c(=O)n2C,-74.6
20,CCOc1ccc(S(=O)(=O)N2CCC(C(=O)NCc3cccnc3)CC2)cc1,-27.1
21,Cc1cc(C)n(-c2nnc3c4ccccc4n(C)c3n2)n1,-7.94
22,O=S1(=O)CCN2C(c3ccco3)=CSC2=N1,0.936
23,O=[N+]([O-])c1cc2c(cc1CN1CCN(c3ccccc3F)CC1)OCO2,4.24

row,SMILES,"hERG current change (%, negative = inhibition) at 10uM [%]"
1,CCOC(=O)C1=C(C)Nc2nc3ccccc3n2C1c1cccs1 (centres unmarked),6.66
2,CN(Cc1cccs1)C(=O)CCCc1c[nH]c2ccccc12,-1.49
3,CCCN(Cc1cc2ccc(C)cc2[nH]c1=O)C(=O)c1ccccn1,-13.3
4,CC(C)c1nnc(NC(=O)CCC(=O)NCc2cccs2)s1,14.1
5,Cc1ccc(Oc2ncc(-c3ccc(Cl)cc3)cn2)cc1,9.42
6,Cc1nn(Cc2ccccc2)c(C)c1C(=O)O,-19.1
7,Cc1c(NC(=O)OCc2ccccc2)c(=O)n(-c2ccccc2)n1C,4.01
8,COc1ccc2c3c(cccc13)C(=O)CC2,9.97
9,CCc1ccc(C(=O)COC(=O)C2CCN(c3ccc(C(F)(F)F)cn3)CC2)cc1,-18
10,COc1ccc(Cc2n[nH]c(=S)n2NC(=O)Nc2ccc(C)cc2)cc1,8.9
11,CCC/C(O)=C1\C(=O)CC(C)(C)CC1=NCc1ccccc1,-21
12,COc1ccc(C(=O)NCCSCc2ccc(C)cc2)cc1,2.63
13,O=S(=O)(c1ccccc1)N1CN2CCN(C2)C1,14.7
14,O=C(CCN1CCN(c2ccccc2)CC1)Nc1ccccc1F,8.14
15,COc1ccc(S(=O)(=O)N2CCOCC2)c2ccccc12,1.96
16,CC(C)C(NC(=O)C1CCC(C(C)(C)C)CC1)C(=O)NCCc1ccc(S(N)(=O)=O)cc1 (centres unmarked),14.1
17,Cc1ccc(/C(N)=N/OC(=O)N2CCOCC2)cc1,-1.21
18,O=C(/C=C/c1ccccc1)Nc1ccc2c(c1)C(=O)NC2=O,-17.2
19,Cc1ccc(-c2c[n+](CC(=O)Nc3nc(-c4ccccc4)cs3)c3n2CCC3)cc1.[Cl-],-54.9
20,CC1C2CC(C(CN(C)C)/C2=N/O)C1(C)C (centres unmarked),-9.04
21,COc1ccc(NC(=O)Cn2cc(C(=O)C3CC3)c3ccccc32)cc1,12.9
22,COc1cccc(C2CC(=O)Nc3cc(OC)c(OC)cc32)c1 (centres unmarked),-1.86
23,O=c1[nH]ncc(NCc2ccc(Cl)cc2)c1Cl,27.4
